From the supplement of paper PMC4604168 (melanoma cell lines)
This is one part of the list. Single values are uncertain, as repeats are few or missing.

Experiments:
Experiment in all cases: cell count relative to DMSO control; melanoma cells; higher = more viable cells
Conditions in all cases: library dose: standard library concentration; 72 h; first compound 2 µM
G361 = system: G361
IPC-298 = system: IPC-298
IST-MEL1 = system: IST-MEL1
LB2518-MEL = system: LB2518-MEL
LOXIMVI = system: LOXIMVI
MEL-HO = system: MEL-HO
MZ2-MEL = system: MZ2-MEL
MeWo = system: MeWo
RPMI7951 = system: RPMI7951
RVH-421 = system: RVH-421
SkMel28 = system: SkMel28
SkMel2 = system: SkMel2
SkMel30 = system: SkMel30
SkMel5 = system: SkMel5
UACC257 = system: UACC257
UACC62 = system: UACC62
WM115 = system: WM115
WM1716 = system: WM1716
WM1745 = system: WM1745
WM3526 = system: WM3526
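Also: cells treated in 1,536-well plates, then fixed and DAPI-stained, with nuclei counted from automated high-throughput microscope images.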

Structure (SMILES) | cell count (G361) | cell count (IPC-298) | cell count (IST-MEL1) | cell count (LB2518-MEL) | cell count (LOXIMVI) | cell count (MEL-HO) | cell count (MZ2-MEL) | cell count (MeWo) | cell count (RPMI7951) | cell count (RVH-421) | cell count (SkMel28) | cell count (SkMel2) | cell count (SkMel30) | cell count (SkMel5) | cell count (UACC257) | cell count (UACC62) | cell count (WM115) | cell count (WM1716) | cell count (WM1745) | cell count (WM3526)
C[C@@H](N)c1ccc(C(=O)Nc2ccnc3[nH]ccc23)cc1 + CC(C)(C)c1cnc(CSc2cnc(NC(=O)C3CCNCC3)s2)o1 [SNS-032] (partner dose 0.05 µM) | 90.6% | 101% | 78.4% | 84.3% | 79.3% | 76.8% | 62.7% | 76.3% | 16.6% | 39.1% | 71.3% | 62.7% | 81.4% | 55.5% | 68.2% | 65.8% | 104% | 44.1% | 48.4% | 97.1%
Cn1sc(=O)n(Cc2ccccc2)c1=O + C[C@@H]1CCN(C(=O)CC#N)C[C@@H]1N(C)c1ncnc2[nH]ccc12 [CP690550] (partner dose 5 µM) | 96.3% | 96.3% | 94.2% | 94.2% | 110% | 96.4% | 117% | 89.2% | 94.2% | 94.5% | 121% | 100% | 97.3% | 83.5% | 101% | 71.3% | 97.6% | 121% | 77.4% | 102%
C[C@@H](N)c1ccc(C(=O)Nc2ccnc3[nH]ccc23)cc1 + C[C@]1(c2nc3c(C(N)=O)cccc3[nH]2)CCCN1 [Veliparib] (partner dose 7 µM) | 92.2% | 104% | 84.6% | 88.9% | 116% | 74.9% | 51.3% | 67.3% | 57.4% | 87% | 69% | 89.6% | 82.4% | 68.1% | 61.6% | 63.6% | 87.6% | 50.3% | 66.3% | 83.5%
CCCCCCCCCCCCCCCCCCOP(=O)([O-])OC1CC[N+](C)(C)CC1 [Perifosine] + Cn1nnc2c(C(N)=O)ncn2c1=O [temozolomide] (partner dose 10 µM) | 126% | 100% | 83.3% | 133% | 88.9% | 103% | 111% | 103% | 54.6% | 122% | 66.4% | 111% | 81% | 111% | 115% | 69.6% | 83.5% | 59.2% | 106% | 101%
C[C@@H](N)c1ccc(C(=O)Nc2ccnc3[nH]ccc23)cc1 + C[C@]1(O)C[C@@H](c2nc(-c3ccc4ccc(-c5ccccc5)nc4c3)c3c(N)nccn32)C1 [OSI906] (partner dose 2 µM) | 75.4% | 64.7% | 71.2% | 67.3% | 68.5% | 51.2% | 41.7% | 64.7% | 45.4% | 25.8% | 54.1% | 60.6% | 83.6% | 52.9% | 21.1% | 59.9% | 91.6% | 38.8% | 35.8% | 64%
CCCCCCCCCCCCCCCCCCOP(=O)([O-])OC1CC[N+](C)(C)CC1 [Perifosine] + CN(NC(=O)CC(=O)NN(C)C(=S)c1ccccc1)C(=S)c1ccccc1 [STA4783] (partner dose 0.03 µM) | 35.6% | 86.4% | 15.7% | 34.1% | 73.6% | 96.5% | 117% | 26.9% | 23.3% | 78.5% | 43.6% | 61.1% | 80.5% | 69.3% | 124% | 43.3% | 20.9% | 76.4% | 21.4% | 98.4%
CCCCCCCCCCCCCCCCCCOP(=O)([O-])OC1CC[N+](C)(C)CC1 [Perifosine] + O=C(O)[C@@H]1[O][Sb](=[O])([O][Sb]2(=[O])[O][C@H]([C@H](O)CO)[C@H](O)[C@H](C(=O)O)[O]2)[O][C@H]([C@H](O)CO)[C@@H]1O [stibogluconate] (partner dose 10 µM) | 121% | 93% | 104% | 111% | 88.3% | 107% | 102% | 91.9% | 95.7% | 101% | 42.5% | 114% | 93% | 106% | 122% | 91.2% | 98.3% | 118% | 122% | 82.3%
Cn1sc(=O)n(Cc2ccccc2)c1=O + COc1cc2c(Oc3ccc4[nH]c(C)cc4c3F)ncnc2cc1OCCCN1CCCC1 [cediranib] (partner dose 2 µM) | 81.2% | 96.9% | 111% | 94.7% | 61.4% | 110% | 83.4% | 80.8% | 73.7% | 97.2% | 81% | 91.7% | 75.5% | 82.6% | 93.6% | 82.1% | 68.2% | 96.3% | 88.2% | 75.2%
Cn1sc(=O)n(Cc2ccccc2)c1=O + CNC(=O)c1cc(Oc2ccc(NC(=O)Nc3ccc(Cl)c(C(F)(F)F)c3)cc2)ccn1 [sorafenib] (partner dose 2 µM) | 108% | 84.5% | 98.9% | 80.3% | 164% | 96.5% | 112% | 82.6% | 60.2% | 85.5% | 85.6% | 86.2% | 77.6% | 77.2% | 81.3% | 123% | 115% | 114% | 88.1% | 87.1%
CCCCCCCCCCCCCCCCCCOP(=O)([O-])OC1CC[N+](C)(C)CC1 [Perifosine] + Nc1nc(F)nc2c1ncn2[C@@H]1O[C@H](CO)[C@@H](O)[C@@H]1O [fludarabine] (partner dose 1 µM) | 79.2% | 76.7% | 72.6% | 76.6% | 89.3% | 70.4% | 93.6% | 89.3% | 41.5% | 95.7% | 1.46% | 1.7% | 15.5% | 38.5% | 38.8% | 79.3% | 83.5% | 82% | 88.6% | 23.3%
CCCCCCCCCCCCCCCCCCOP(=O)([O-])OC1CC[N+](C)(C)CC1 [Perifosine] + Cn1sc(=O)n(Cc2ccccc2)c1=O [TDZD-8] (partner dose 2 µM) | 87.5% | 81.1% | 93.8% | 78.3% | 103% | 102% | 91.3% | 83% | 33.4% | 111% | 65.2% | 89.5% | 103% | 98.2% | 99.6% | 99.7% | 81.1% | 88.1% | 59.6% | 77.8%
Cn1sc(=O)n(Cc2ccccc2)c1=O + CN(C)S(=O)(=O)c1ccc2c(c1)/C(=C/c1cc3c([nH]1)CCCC3)C(=O)N2 [SU6656] (partner dose 2 µM) | 61.3% | 72.6% | 89.9% | 67.1% | 97.2% | 85.3% | 95.2% | 80.8% | 35.4% | 95.7% | 80.9% | 82.6% | 80.3% | 80.4% | 89.5% | 63.4% | 48.8% | 68.1% | 54.2% | 74.1%
C[C@@H](N)c1ccc(C(=O)Nc2ccnc3[nH]ccc23)cc1 + CO[C@@H]1[C@H](N(C)C(=O)c2ccccc2)C[C@H]2O[C@]1(C)n1c3ccccc3c3c4c(c5c6ccccc6n2c5c31)C(=O)NC4 [Midostaurin] (partner dose 0.4 µM) | 42.1% | 81.1% | 55.5% | 55.1% | 35.5% | 63.9% | 51.1% | 61.6% | 19.2% | 37.8% | 43.1% | 69.7% | 71.6% | 31.9% | 44.4% | 46.8% | 56.2% | 34.8% | 19.7% | 82.9%
CCCCCCCCCCCCCCCCCCOP(=O)([O-])OC1CC[N+](C)(C)CC1 [Perifosine] + Cc1cc(Nc2cc(N3CCN(C)CC3)nc(/C=C/c3ccccc3)n2)n[nH]1 [ENMD2076] (partner dose 0.2 µM) | 107% | 86.3% | 115% | 75.7% | 82.4% | 95.2% | 108% | 71.3% | 19.4% | 119% | 31.3% | 99.9% | 71.5% | 59.1% | 90.4% | 54% | 54.2% | 86.3% | 66.2% | 72.6%
C[C@@H](N)c1ccc(C(=O)Nc2ccnc3[nH]ccc23)cc1 + NCC(=O)Nc1ccc(-n2nc(C(F)(F)F)cc2-c2ccc3c(ccc4ccccc43)c2)cc1 [OSU03012] (partner dose 5 µM) | 60.2% | 55% | 81.1% | 98.7% | 74.9% | 66.9% | 44.8% | 79.2% | 70.1% | 51% | 26.1% | 35.1% | 26.8% | 39.2% | 52.4% | 47% | 90.7% | 51.3% | 50% | 44.1%
Cn1sc(=O)n(Cc2ccccc2)c1=O + Cc1cc(Nc2cc(N3CCN(C)CC3)nc(/C=C/c3ccccc3)n2)n[nH]1 [ENMD2076] (partner dose 0.2 µM) | 101% | 99.9% | 94.2% | 78.3% | 91% | 108% | 109% | 95.7% | 90.2% | 71.3% | 60.7% | 95.3% | 90.8% | 75% | 96.6% | 117% | 82.2% | 95.9% | 86.5% | 79.2%
C[C@@H](N)c1ccc(C(=O)Nc2ccnc3[nH]ccc23)cc1 + Cn1cncc1[C@@](N)(c1ccc(Cl)cc1)c1ccc2c(c1)c(-c1cccc(Cl)c1)cc(=O)n2C [tipifarnib] (partner dose 0.05 µM) | 75% | 100% | 70.8% | 88.1% | 74.8% | 83.1% | 83.8% | 82.3% | 63.3% | 68.8% | 70.4% | 75.7% | 81.3% | 66.4% | 77.6% | 70.6% | 68.6% | 55.4% | 60.8% | 79.8%
CCCCCCCCCCCCCCCCCCOP(=O)([O-])OC1CC[N+](C)(C)CC1 [Perifosine] + C[C@@H](Oc1cc(-c2cnn(C3CCNCC3)c2)cnc1N)c1c(Cl)ccc(F)c1Cl [Crizotinib] (partner dose 1 µM) | 61.9% | 86.4% | 89% | 80.5% | 148% | 71.3% | 88.2% | 89% | 29.6% | 105% | 43% | 76.1% | 90.8% | 73% | 68.6% | 80.7% | 64.5% | 113% | 49.7% | 80.8%
Cn1sc(=O)n(Cc2ccccc2)c1=O + Nc1cccc2c1CN(C1CCC(=O)NC1=O)C2=O [lenalidomide] (partner dose 5 µM) | 107% | 106% | 100% | 90.2% | 96.1% | 115% | 111% | 102% | 95.4% | 78.9% | 88.6% | 88.4% | 108% | 83.9% | 99.4% | 99.9% | 108% | 92.1% | 84.6% | 81.9%
CCCCCCCCCCCCCCCCCCOP(=O)([O-])OC1CC[N+](C)(C)CC1 [Perifosine] + NC(=O)c1ccc(N(C(N)=O)c2c(F)cccc2F)nc1-c1ccc(F)cc1F [VX702] (partner dose 2 µM) | 89.2% | 117% | 12.8% | 84.9% | 77.8% | 98% | 92.8% | 91% | 32.9% | 130% | 81.8% | 94.8% | 82% | 104% | 93.1% | 76.5% | 88.6% | 113% | 74.6% | 99.5%
